Reference: article PMC4336329 (PLoS ONE, 2015)
The whole screen tested about 310,000 compounds, of which about 2,200 (0.71%) showed an effect of 50% or more. The effect is printed as a negative number. Some of the results follow.

Biological target: human ether-à-go-go-related gene (hERG) potassium channel (human, UniProt Q12809)
Experiment: primary screen, population patch clamp on CHO cells stably expressing hERG

Sequence of human ether-à-go-go-related gene (hERG) potassium channel (Q12809 whole entry, looked up): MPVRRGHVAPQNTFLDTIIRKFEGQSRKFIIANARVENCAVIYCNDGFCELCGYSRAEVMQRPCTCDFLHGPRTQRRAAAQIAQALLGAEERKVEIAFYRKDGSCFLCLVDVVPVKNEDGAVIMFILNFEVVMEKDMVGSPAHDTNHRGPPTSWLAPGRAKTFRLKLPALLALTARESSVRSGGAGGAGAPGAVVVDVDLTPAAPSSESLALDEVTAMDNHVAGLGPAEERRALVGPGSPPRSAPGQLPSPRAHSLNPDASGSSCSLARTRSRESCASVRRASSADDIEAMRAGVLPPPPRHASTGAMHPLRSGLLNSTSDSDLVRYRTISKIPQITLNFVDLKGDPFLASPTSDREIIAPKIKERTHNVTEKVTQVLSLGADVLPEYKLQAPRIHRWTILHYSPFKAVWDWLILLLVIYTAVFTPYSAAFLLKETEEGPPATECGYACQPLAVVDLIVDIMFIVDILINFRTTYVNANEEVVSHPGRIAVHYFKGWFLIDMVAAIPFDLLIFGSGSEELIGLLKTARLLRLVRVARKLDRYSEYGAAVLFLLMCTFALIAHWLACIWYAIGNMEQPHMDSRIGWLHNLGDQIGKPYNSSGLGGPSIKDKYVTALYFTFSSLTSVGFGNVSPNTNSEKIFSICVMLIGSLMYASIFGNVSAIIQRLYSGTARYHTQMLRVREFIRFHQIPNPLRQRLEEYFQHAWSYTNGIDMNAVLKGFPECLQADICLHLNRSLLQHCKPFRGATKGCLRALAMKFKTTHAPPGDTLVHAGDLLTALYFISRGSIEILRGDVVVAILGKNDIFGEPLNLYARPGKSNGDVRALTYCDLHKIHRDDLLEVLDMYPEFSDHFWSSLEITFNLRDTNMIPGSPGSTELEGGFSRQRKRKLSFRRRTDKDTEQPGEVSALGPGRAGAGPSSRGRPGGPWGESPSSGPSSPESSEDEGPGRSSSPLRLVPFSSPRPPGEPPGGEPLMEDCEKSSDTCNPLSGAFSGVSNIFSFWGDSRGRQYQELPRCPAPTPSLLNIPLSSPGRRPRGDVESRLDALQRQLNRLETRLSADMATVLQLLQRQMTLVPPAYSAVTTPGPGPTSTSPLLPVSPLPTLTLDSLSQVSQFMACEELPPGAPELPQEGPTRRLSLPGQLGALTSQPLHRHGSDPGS

| Compound | hERG current change (%, negative = inhibition) at 1uM |
| --- | --- |
| COc1ccc(NC(=O)NCc2cccnc2)cc1OC | 19% |
| COc1cccc(-n2c(=S)[nH]c3c(oc4ccccc43)c2=O)c1 | 11.3% |
| COC(=O)CCC(=O)OC1(C)C(=O)C=C2C=C(C3CC3)N(CCN3CCOCC3)C=C2C1=O (stereo not drawn) | 11.4% |
| O=C(Nc1nc(-c2ccc(Cl)cc2)cs1)NC1CCCCC1 | 8.27% |
| CCN(CC)CCNC(=O)c1ccc(CS(=O)(=O)c2ccccc2C)o1 | -4.67% |
| C/C(=N\NC(=O)c1ccco1)c1ccc(NC(=O)c2cccs2)cc1 | 15.2% |
| Cc1cccc(N2CCN(C(=O)C34CC5CC(CC(C5)C3)C4)CC2)c1C | 13.6% |
| CCCC(=O)Nc1cc(-c2nn(C)c(=O)c3ccccc23)ccc1OC | -0.736% |
| COc1ccc(C(=O)Nc2ccccc2N2CCOCC2)cc1S(=O)(=O)N1CCCC1 | 0.608% |
| C#CCOCCOCCOCCNc1nc(N2CCN(C(=O)Cn3cc(CCCC[NH3+])nn3)CC2)nc(N2CCN(C(=O)[C@H]([C@@H](C)CC)n3cc(CCC[NH+]=C(N)N)nn3)CC2)n1.[Cl-] | 13.6% |
| Cc1cc(F)ccc1NC(=O)Nc1ccc2c(c1)OCO2 | 10% |
| CC1(C)CC(=O)C=C(NCCN2CCN(C(=O)Nc3ccccc3)CC2)C1 | -2.86% |
| O=C(CSc1nnnn1Cc1ccccc1)c1ccccc1F | 13.5% |
| Cc1ccsc1/C=N/n1cnnc1 | 14.1% |
| CCOC(=O)c1c(NC(=O)Cn2cnc([N+](=O)[O-])n2)sc(C)c1C | 8.52% |
| COc1ccccc1OCCNC(=O)Cc1ccc(S(=O)(=O)N2CCOCC2)s1 | 5.3% |
| COc1ccc(-c2cc(-c3ccc(O)cc3)nc(N)c2C#N)cc1 | 6.2% |
| O=C(COc1ccc(Cl)cc1)Nc1ccc2c(c1)CCC2 | -0.813% |
| CN(C)c1nc(N/N=C/c2c[nH]c3ccccc23)nc(N2CCOCC2)n1 | 8.53% |

| Compound | hERG current change (%, negative = inhibition) at 1uM |
| --- | --- |
| CC(C)CC(=O)Nc1ccc(Nc2ccccc2)cc1 | 1.27% |
| CCC[C@H](CN[C@@H](CNC)[C@H](C)CC)NCCc1cc(C(F)(F)F)cc(C(F)(F)F)c1 | 0.0872% |
| CCN(CC)CCCNc1cc2n(c(=O)n1)CCc1cc(OC)c(OC)cc1-2 | 0.0913% |
| CC(C)(C)C1CCC(=NNC(=O)c2ccco2)CC1 (stereo not drawn) | 9.96% |
| Cc1ccccc1-n1nc(-c2ccc(N)cc2)cc1N | 6.98% |
| Cc1cccc(OCC(=O)NC(=S)NNC(=O)c2ccncc2)c1 | 10.2% |
| O=C(CN(Cc1cccs1)S(=O)(=O)c1ccc(S(=O)(=O)NC2CCCCC2)cc1)Nc1ccccc1 | 4.16% |
| CCc1ccccc1NC(=O)NCCN1CCCCC1 | 8.55% |
| Cc1ccc2c(c1)c(N=O)c(O)n2Cc1ccc(Cl)cc1 | 3.4% |
| CC(=O)c1cccc(NC(=O)/C(=C/c2ccco2)NC(=O)c2ccco2)c1 | 10.1% |
| Cc1cccc(NS(=O)(=O)c2ccc3c(c2)oc(=O)n3C)c1C | 11.3% |
| O=C(OCC(=O)N1CCCC1=O)c1cc(Cl)ccc1O | -5.3% |
| Cc1ccccc1NS(=O)(=O)c1ccc(OCCNS(C)(=O)=O)cc1 | 9.78% |
| CCc1ccc(N(CC(=O)NC(C)C)C(=O)CCC(=O)Nc2nccs2)cc1 | 13% |
| CCc1cc(=O)oc2cc(OC(C)C(=O)O)c(Cl)cc12 (stereo not drawn) | 14.3% |
| COCC(=O)Nc1ccc(Br)cc1 | 5.29% |
| COc1ccc(NS(=O)(=O)c2ccc3c(c2)N(C(C)=O)CC(C)S3)c(OC)c1 (stereo not drawn) | 11.1% |
| CCCOC(=O)c1ccc(NC(=O)c2c(Cl)ccc(Cl)c2OC)cc1 | 4.49% |
| CC1(NC(=O)CC[N+](C)(C)CCO)CS(=O)(=O)CC1S(=O)(=O)[O-] (stereo not drawn) | 2.79% |

| Compound | hERG current change (%, negative = inhibition) at 1uM |
| --- | --- |
| CN1C2CCC1CC(NS(=O)(=O)c1cccc(C(F)(F)F)c1)C2 (stereo not drawn) | 8.96% |
| COC(=O)C1=C(c2ccc3ccccc3c2)C[C@@H]2CC[C@H]1N2C(=O)N1CCCCC1 | 10.9% |
| Cc1noc(C)c1CN(C(=S)NC1CC1)c1ccccc1 | 8.04% |
| COc1ccc(N=C(C)C2=C(O)COC2=O)cc1 | 4.93% |
| Cc1[nH]cc(Br)c(=O)c1Oc1ncc(C(F)(F)F)cc1Cl | 4.01% |
| Cc1ccc(/C=C/C(=O)N2CCN(Cc3ccccc3)CC2)o1 | 4.76% |
| Cc1ccc(C(C)C)c(OCC(=O)c2c(O)c3ccccc3oc2=O)c1 | -8.35% |
| CCN(CC)CCN1C(=O)C(O)=C(C(C)=O)C1c1ccccc1[N+](=O)[O-] (stereo not drawn) | 13.8% |
| Cc1ccc(NC(=O)C2C3CCCC2C3c2ccccc2)cc1 (stereo not drawn) | 6.16% |
| Cc1nn(C)c(Cl)c1C(N)=O | 9.89% |
| COc1ccc(Cc2nnc(N/N=C/c3ccc(O)cc3)[nH]c2=O)cc1OC | 5.73% |
| COC(=O)C1=C(C)NC(=O)CC1c1ccccc1OC (stereo not drawn) | 9.49% |
| COC(=O)c1ccc(CN2CCC(CO)(Cc3ccccc3Cl)CC2)cc1 | -28.4% |
| Cn1c(=O)c2c(nc(SCc3ccccc3)n2Cc2ccc(Cl)cc2)n(C)c1=O | 10.5% |
| CNC(=O)c1ccc(NC(=O)c2cc(S(=O)(=O)N3CCOCC3)ccc2N2CCCC2)cc1 | 13.5% |
| COc1ccc(/C=C/C(=O)c2ccc3ccccc3c2O)cc1CN1CCOCC1 | 4.2% |
| COC(=O)c1ccc(NC(C)C(=O)OC)c([N+](=O)[O-])c1 (stereo not drawn) | 24.8% |
| COc1ccc([C@H]2CC(=O)C=C(c3cccc(Br)c3)C2)cc1 | 8.1% |
| Cc1ccc(S(=O)(=O)N2CCN(CC(=O)N/N=C/c3ccc(Br)s3)CC2)cc1 | -0.836% |
